The text below walks through data of PubChem BioAssay (NCI).

Some compounds were tested as several samples or in several runs, with calls that do not always agree.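 Each cell line was grown in a 96-well plate and treated with one concentration of compound for 48 hours. Values below 10 were considered active.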 Not every entry of the source has a single result; some have several. This is not the full list of results. The source may hold further records. The screen tested this drug many times, at the concentration stated with the values; each value is one run. Counts like (3×) say how often a value occurs here.

For this experiment, the system named is OVCAR-4 ovarian. Description: NCI-60 one-dose screen, 48 h (100 = growth as untreated, 0 = no growth, -100 = all killed). To be noted: 0.25 µM.

On to `COc1cccc2c1C(=O)c1c(O)c3c(c(O)c1C2=O)C[C@@](O)(C(=O)CO)C[C@@H]3OC1CC(N)C(O)C(C)O1` (stereo partly specified), for which the growth result was “inactive: 73.8, 76.5 (2×), 76.1, 74.3, 72.1 (2×), 73.3, 74.5, 68.8, 76, 75.9, 68, 65.8, 62.2, 72.6, 69.8, 63.6, 67.6, 62.9 (2×), 61.9, 76.6, 62.5, 68.6, 74, 65.2, 79.5 (2×), 81.4, 59, 64.7, 56.6, 60, 68.9, 67.2, 52.2, 71.2, 77.8, 70.9, 69.4, 71.3, 64.8, 63.8, 75.4, 74.6 (2×), 80, 71.4, 70.2, 64.5, 65.6, 67.1, 63.5, 70.4, 72%” (runs of 2010); “inactive: 73.6, 69.5, 59.2, 67.1, 67.3, 67.4, 63.2 (2×), 68.5, 64.9, 62.1, 69.6, 64.7, 75.2, 73.2 (2×), 72.2, 60.3, 82.5, 76.1 (2×), 72.8, 77.3, 73.3, 87.7, 77.7, 85.7, 74.7, 79.7, 82.7, 72.6, 59.4, 74.5, 79.9 (2×), 63.5, 74, 71.1, 53.7, 62.7 (2×), 64.8, 65.1, 64.6 (2×), 70.1, 70.8, 64, 73, 76.4, 69.8, 56.3, 53.2, 70.3, 66.4, 69, 67, 77.9, 67.2, 75.8, 72%” (runs of 2011); “inactive: 76.5, 65.1, 69.3, 68, 67.8, 60.2, 73, 75.9, 73.1, 62.7, 66.7, 61.1, 65.2 (2×), 73.6, 52.5, 60.1, 65, 63.6, 64.4, 67.4, 68.9, 68.5, 69 (2×), 72.6, 63.9, 78 (2×), 79.3 (2×), 87.1, 77.8 (3×), 82.2 (2×), 63.7, 72.4, 71.7, 75.3, 67.6 (2×), 66.4, 81.5, 71.5 (2×), 78.2, 80.3, 77.9, 81, 83.9, 91.5, 72.8, 80, 77.2, 79.7, 90.7, 69.7, 68.6, 71.6, 73.5, 70.9, 68.8, 43.7, 55.4, 65.4, 67.9, 80.8%” (runs of 2012); “inactive: 61.2, 76.7, 80.5, 78.4, 84.4 (4×), 76.6 (2×), 77.1, 80.9, 74.4 (2×), 79.1 (2×), 72.2, 83.9, 63.3, 69.8, 74.6, 83.2, 76.1, 87.1, 83.6, 78.2 (3×), 71, 80.3, 82.8, 78.9, 82.9 (2×), 74.7 (2×), 74, 83.1, 71.3, 68.8, 78.8, 71.7, 81.5 (2×), 81.1, 79.7, 92.1, 82.4, 72.4 (2×), 79.3, 96.8, 94, 70.5, 90.2, 91.3, 85.1, 75.1, 79.6, 62.1 (2×), 70.8, 60.7 (2×), 71.8, 64.6, 67.6, 73.7, 65.9, 60.1, 63.4, 67.5%” (runs of 2013); “inactive: 66.9 (2×), 71.3, 68.6, 65.6, 59.3, 72.1, 60.6 (2×), 56.4, 67.9 (2×), 64.6 (2×), 65.5, 66.7, 66.8 (2×), 58.7, 67.1, 64.4, 67.8, 64 (3×), 66.4 (3×), 66.3 (3×), 73 (2×), 64.3, 63.4 (2×), 62.7, 63.3, 69.1 (2×), 70, 62.5, 63, 61.5 (2×), 60, 70.4, 69.9 (2×), 66 (2×), 63.8, 59.2, 67.4, 61.3, 62, 60.9, 60.3 (2×), 61.6, 58.2, 60.4, 60.7, 63.2, 73.1, 71.8, 56.2, 56.1, 69.2, 62.8, 71, 67.3, 70.7 (2×), 65.7, 68.3, 65.8 (2×), 68, 70.9, 66.6, 65.4, 58.5, 74.3, 72.7, 73.2, 61.9%” (runs of 2014); “inactive: 69.1, 70.3 (4×), 67.2 (2×), 60.1, 69.3, 74.4, 66.7, 75.3 (2×), 66.6, 76.5 (2×), 72.5 (2×), 62.8, 71.2, 82, 67.6, 65, 62.6 (2×), 44.7, 47.6, 54.8, 64.5 (2×), 73, 83, 68, 62.9 (2×), 64.8, 67.1 (2×), 74.8, 73.3, 72.2, 71.1, 73.8, 72.3, 63.6, 63.7, 58.1, 71.4, 67.5 (2×), 65.1, 68.7 (2×), 61.7, 71.5 (2×), 65.4, 54.6, 64.7, 69.8, 58.3, 48.9, 50.3, 58.2, 84.9, 64.6, 73.1, 68.5, 72.1 (2×), 82.5, 74.2, 79.1, 77.2 (2×), 79.8 (2×), 81, 78, 68.9, 69.6, 61.8, 70.2, 70.5, 80.5, 78.5, 66, 67.3, 68.8, 69.4%” (runs of 2015). In addition, the growth result (runs of 2016) was “inactive: 75.1, 76.7 (2×), 72, 69.8, 77.3, 72.3, 70.8, 65.9, 71.9, 64.3, 70.4, 69.3, 71.3 (3×), 68.2, 60.6, 68.4 (2×), 63.1, 65.3, 59.2, 57, 69, 60.7, 60.5, 62, 63.7, 59.6, 67.9, 63.8, 65.5, 69.4, 74.7, 67.2, 68.5, 67.5 (2×), 68.3, 67.8, 66.9, 72.8, 70.5 (4×), 74.9, 78.9 (2×), 74.4 (2×), 79.9, 78.7 (2×), 72.1, 80.1, 73.5, 78.4, 71.8, 67, 73, 76.3, 77.9, 79, 73.9, 85.5, 81, 94.8, 83.4, 81.9, 80.3, 79.6, 83.2, 84.6 (2×), 88.8, 76.8, 79.7 (2×), 78.8, 85.4, 87.4, 85.8, 79.3, 73.8, 82, 74.2 (2×), 76.1, 72.2%”; the growth entry (runs of 2017) is “inactive: 73.9, 73.3 (3×), 74.9, 74.2, 67.8 (2×), 73 (2×), 71 (3×), 68.4, 61.3, 65.5, 67.1 (2×), 63.1, 69.1 (2×), 60.8, 67.6, 69.6, 63.4, 62.2, 62.1, 65.7, 64.5, 67.3, 71.1 (2×), 66.3, 69, 69.5, 67.5 (3×), 68.5, 70.9, 72.8, 81, 76.4, 66 (2×), 74, 71.7, 66.6, 72 (2×), 62.6, 68.6 (2×), 63.9 (2×), 68.7, 74.8, 68.8, 64.2, 68 (2×), 72.6, 71.3 (2×), 69.9 (2×), 82, 77.7, 70.2, 66.7, 75, 74.5, 66.1, 66.5, 69.4 (2×), 74.3, 89.3, 69.2, 70.7, 61.5, 60.3, 74.6, 71.9, 87.2, 90, 94.2%”; the growth result (runs of 2018) was “inactive: 93.1, 94.7, 93.9, 89.8 (2×), 90.5, 92.4, 81.3, 91.6, 92.7, 80, 88.7, 93.5, 92.2, 85.1, 74.5, 79.5, 73.6, 73.2, 70.2, 81.8, 78.1, 71.9 (3×), 71.5, 74, 78.7, 67, 71.1, 72.6, 69.7, 69.2 (2×), 77, 74.8, 67.5 (2×), 69.8, 75.2, 81.5, 67.4, 77.3, 74.7, 69.6, 70.4, 72.3, 68.5, 76.6, 52.4, 60.7%”; the growth result (runs of 2019) was “inactive: 55, 55.2, 63.2 (2×), 58.6, 63.1, 68.8, 62.9 (2×), 62.6 (2×), 66.5, 71.3, 60.1, 65.8, 55.4, 67.3, 65.4, 63.5, 65.3, 58.8, 61.4, 58.9, 62.1 (2×), 67.9, 71.1, 69.7, 54.9, 71.6 (2×), 60.8, 64.9, 67.4, 61.5, 57, 59.3, 73.8, 65.7 (2×), 56.1, 63, 66.3, 69.6, 67.1, 66.1, 71.8, 58.7, 64, 61.7, 62.5%”; the growth entry (runs of 2020) was “inactive: 64.5, 63.5, 70.8, 74.4, 71.6, 70.2, 63.8, 72.3, 73, 67.4, 73.2, 62.7, 56.4, 71, 71.7, 76, 85.8, 72.9, 73.9, 79.5 (2×), 74.5 (2×), 70, 70.4, 64.7%”.
